# Measurements reported in PubChem BioAssay AID488969 (Vanderbilt High Throughput Screening Facility, 2010).
# In all, about 110,000 compounds were measured (“z-score”: median about -0.1, highest 2% from about 2 on). The list shows a part of the results. Calls of active or inactive are those of the source.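 Rule for the calls: active = z-score in the third read window above 3 or below -3; inactive = the rest.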
# Molecular target: Metabotropic glutamate receptor 8 (Rattus norvegicus) (UniProt P70579)
# UniProt P70579, sequence (P70579 whole entry, looked up): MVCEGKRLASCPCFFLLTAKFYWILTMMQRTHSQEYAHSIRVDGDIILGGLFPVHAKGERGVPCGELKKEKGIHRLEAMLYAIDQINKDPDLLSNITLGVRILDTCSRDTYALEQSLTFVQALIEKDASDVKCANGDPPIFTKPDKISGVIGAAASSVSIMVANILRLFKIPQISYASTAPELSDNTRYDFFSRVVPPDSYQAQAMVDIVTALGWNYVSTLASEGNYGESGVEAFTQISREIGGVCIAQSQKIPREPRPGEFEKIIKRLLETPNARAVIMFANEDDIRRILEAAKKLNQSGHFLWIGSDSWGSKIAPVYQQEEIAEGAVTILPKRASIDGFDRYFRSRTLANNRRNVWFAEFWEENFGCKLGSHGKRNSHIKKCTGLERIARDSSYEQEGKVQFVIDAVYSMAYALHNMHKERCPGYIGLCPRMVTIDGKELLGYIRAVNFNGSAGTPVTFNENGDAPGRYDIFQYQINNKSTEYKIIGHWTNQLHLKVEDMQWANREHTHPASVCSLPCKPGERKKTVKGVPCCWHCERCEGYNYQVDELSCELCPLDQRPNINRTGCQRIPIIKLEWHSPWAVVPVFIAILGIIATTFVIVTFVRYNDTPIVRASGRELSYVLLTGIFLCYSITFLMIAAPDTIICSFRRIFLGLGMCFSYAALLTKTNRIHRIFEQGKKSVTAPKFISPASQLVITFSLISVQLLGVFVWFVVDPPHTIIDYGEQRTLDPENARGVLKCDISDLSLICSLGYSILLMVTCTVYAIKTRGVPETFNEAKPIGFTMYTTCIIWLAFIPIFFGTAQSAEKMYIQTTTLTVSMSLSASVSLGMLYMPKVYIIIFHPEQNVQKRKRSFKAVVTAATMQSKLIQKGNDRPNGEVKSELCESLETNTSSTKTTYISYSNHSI
# Assay: rat mGluR8 modulators via GIRK flux, primary screen, cell-based, thallium flux, HTS (AID 488969)
# Conditions: HEK293 rat mGluR8, GIRK (G protein-gated inwardly rectifying potassium channel) thallium flux, FluoZin2; at 10 µM; stronger effect = higher value; submaximal glutamate (EC20) added with thallium
row,Structure (SMILES),z-score
1,O=C(Nc1ccccc1)/C(=C/c1ccccc1)c1ccccc1,-0.379
2,CCc1nnc(NC(=O)CCC(=O)NC2CCCc3ccccc32)s1 (configuration not stated),0.00448
3,CC(C)C(NC(=O)C1CCC(C(C)(C)C)CC1)C(=O)NCc1cccnc1 (configuration not stated),-0.0771
4,O=C(c1ccc(COc2ccc(Cl)cc2)o1)N1N=C(C(F)F)CC1(O)C(F)F (configuration not stated),-0.252
5,CC1(C(=O)NCc2cccnc2)CCC(=O)N1CCc1ccccc1 (configuration not stated),-0.0105
6,O=C(NC1(C(F)(F)F)NC(=O)N(Cc2cccnc2)C1=O)c1ccccc1Cl (configuration not stated),-0.175
7,CC1=NN(C(=O)COc2ccc(C)c(C)c2)C(O)(c2ccccc2)C1 (configuration not stated),0.47
8,COc1ccc(C2CC(c3cccs3)=NN2c2nc(-c3ccccc3)cs2)cc1OC (configuration not stated),-0.0707
9,C=COCCNC(=O)Nc1ccc(Cl)c(Cl)c1,active: 3.37
10,CCCCn1c(SCC(=O)Nc2nnc(C(C)C)s2)nc2c1c(=O)n(C)c(=O)n2C,0.12
11,COCc1cc(=O)[nH]c(Sc2c(-c3ccccc3)c3ccc(Cl)cc3[nH]c2=O)n1,-0.351
12,CSCCC(NC(=O)c1cccc([N+](=O)[O-])c1)c1nc2ccccc2[nH]1 (configuration not stated),-0.0327
13,CC(C)[C@H](NC(=O)Nc1cccc(Br)c1)C(=O)O,0.274
14,N#Cc1ccc(N2Cc3ccccc3C2=NC(=O)c2cccs2)cc1,-0.715
15,COc1cc(-c2nc(-c3cccc(C)c3)no2)cc(OC)c1OC,0.448
16,CCOC(=O)c1sc(NC(=O)CSc2nnnn2-c2ccccc2)c(C(=O)OCC)c1C,-0.0499
17,CCOC(=O)NC(Nc1sc2c(c1C(N)=O)CCCC2)(C(=O)OCC)C(F)(F)F (configuration not stated),-0.0836
18,O=C(Cc1coc2cc3c(cc12)CCC3)NC1CCCCCCC1,-0.0467
19,O=C(Cn1ccc2ccccc2c1=O)NCCC(=O)N1CCN(C(=O)c2ccco2)CC1,0.0722
20,Cc1cccc(NC(=O)c2cc(=O)c3ccccc3o2)n1,0.0433
21,CN1CCN(S(=O)(=O)c2ccc(NC(=O)C3CCCCC3)cc2)CC1,-0.0959
22,Cc1ccc(SC(C)C(=O)Nc2ccccc2C(=O)N2CCOCC2)cc1 (configuration not stated),-0.0257

row,Structure (SMILES),z-score
1,Brc1ccc(CN2C3=NCCCN3c3ccccc32)cc1,0.755
2,C=CCNC(=O)c1ccccc1NC(=O)Nc1ccccc1,-0.287
3,CCCc1[nH]nc2c1C(c1ccc(OC(=O)N3CCOCC3)cc1)C(C#N)=C(N)O2 (configuration not stated),-1.04
4,O=C(Nc1cc(Sc2nc3ccccc3s2)cc([N+](=O)[O-])c1)c1cccc(F)c1F,-0.201
5,O=C(NCc1ccccn1)c1cc(-n2cnnc2)ccc1Cl,0.148
6,COc1ccc(N2CCN(c3nc(Cl)nc(N4CCOCC4)n3)CC2)cc1,0.606
7,Cc1cc(-c2ccc(N3C(=O)CCC3=O)c(C)c2)ccc1N1C(=O)CCC1=O,0.65
8,CCOC(=O)C1CCN(C(=O)c2c(-c3c(Cl)cccc3Cl)noc2C)CC1,0.331
9,CCCc1cc(Nc2cccc(OC)c2)n2ncnc2n1,-0.466
10,COc1cccc(CN(C)CC(=O)NC(=O)NCc2ccco2)c1,-0.0946
11,CCOC(=O)Nc1ccc2c(CN3CCN(S(=O)(=O)c4ccccc4)CC3)cc(=O)oc2c1,-0.402
12,CCOC(=O)N1CCN(CCC(=O)Nc2ccc(C)c(Br)c2)CC1,-0.922
13,COc1ccc(OC)c(-c2cc(C(=O)N3CCCc4ccccc43)no2)c1,1.1
14,O=C(CNS(=O)(=O)c1ccc(Br)s1)N1CCN(c2ncccn2)CC1,0.0378
15,CC(NC(=O)CSc1nc2ccccc2n1CCC#N)c1ccc(F)cc1 (configuration not stated),-0.463
16,C/C(=N/OC(=O)c1cccc(Cl)c1)c1nccs1,-0.000682
17,COc1cc(C(=O)O/N=C2\C=CC(=O)C=C2C)cc(OC)c1OC,-0.421
18,CNC(=O)NC(=O)C(C)OC(=O)c1c2c(nc3ccccc13)/C(=C/c1cccs1)CC2 (configuration not stated),-0.36
19,CCOCCCNC(=O)/C(C#N)=C/c1ccc(-c2ccc(S(=O)(=O)N3CCOCC3)cc2)o1,2.32
20,Cc1ccc(CNC(=O)C2CCN(S(=O)(=O)c3ccc4c(c3)OCCCO4)CC2)cc1,0.0364
21,Cc1cc(C)nc(N2C(=O)CC(C(C)c3ccccc3)C2=O)n1 (configuration not stated),0.634
22,CCCCNC(=O)/C=C/c1cccs1,-0.364

row,Structure (SMILES),z-score
1,Brc1ccc(-c2ncc(-c3ccccc3)cn2)cc1,-0.0849
2,COc1ccccc1NC(=S)NNC(=O)c1nn(C)c(C)c1Br,-0.19
3,NC(=O)Cc1nc(-c2ccc(Br)cc2)cs1,-0.0312
4,CN(CC(=O)OCC(=O)NCc1ccccc1)S(=O)(=O)c1ccc(Cl)cc1,-0.849
5,O=C(NCCN1CCOCC1)c1cc(-c2ccc(Br)cc2)on1,1.14
6,CN1CCCC(OC(=O)COc2ccc(Br)cc2)C1 (configuration not stated),-0.177
7,CN(C)c1nc(C#N)nc(N2CCOCC2)n1,0.0483
8,Cc1nn(C)c(C)c1CN(C)C(=O)C1(C)CC1(Br)Br (configuration not stated),-0.26
9,S=C(Nc1ccccc1Cl)N(CCN1CCCCC1)Cc1ccco1,-0.343
10,Cc1ccc(CNc2oc(-c3ccco3)nc2S(=O)(=O)c2ccccc2)cc1,0.738
11,CCCCn1c(SCc2nc(N)nc(Nc3ccccc3C)n2)nc2ccccc2c1=O,active: 3.44
12,CCn1c(SCC(=O)Nc2ccccc2OC)nc2ccccc2c1=O,-0.373
13,Cc1ccc(-c2nc(N)sc2CC(=O)OCC(=O)NC2CCCC(C)C2C)cc1 (configuration not stated),-0.304
14,O=C(CCN1CCC(c2ccccc2)C1)c1ccc2c(c1)OCCO2 (configuration not stated),0.642
15,CC(C)(C)C(=O)OCc1cn(-c2ccccc2)nn1,-0.38
16,COc1ccc(Cl)cc1NC(=O)[C@@H]1CCCN1C(=O)c1cccs1,-0.283
17,Cc1ccc(-n2nnnc2SCC(=O)NNC(=O)c2ccco2)c(C)c1,-0.103
18,Cc1cc(C)c(NC(=O)c2ccc(S(=O)(=O)N(C)C)cc2)c(C)n1,-1.73
19,Cc1nc(SCC(=O)Nn2c(-c3ccccc3)nc3ccccc3c2=O)n[nH]1,-0.472
20,COc1ccc(C2C(C(=O)c3ccco3)=C(O)C(=O)N2CCc2ccccc2)cc1OC (configuration not stated),0.128
21,N/C(=N\OC(=O)CCc1ccccc1)c1cccc(Br)c1,-0.113
22,Cc1cc(C)c(S(=O)(=O)N2CCCOC2CNC(=O)C(=O)NCCCn2ccnc2)c(C)c1 (configuration not stated),-0.405

row,Structure (SMILES),z-score
1,Cc1ccc(OC(=O)c2ccccc2C(=O)OCC(F)(F)C(F)F)cc1,-0.0779
2,O=C(Nc1cccc(S(=O)(=O)c2cccc(NC(=O)C3CC3)c2)c1)C1CC1,-1.5
3,C=CCn1c(N)c(S(=O)(=O)c2cccs2)c2nc3ccccc3nc21,-2.7
4,CCN(CC)S(=O)(=O)c1ccc(C(=O)OCCN2C(=O)CCC2=O)cc1,-0.0758
5,COc1ccc(CC(=O)Nc2ccc(S(=O)(=O)Nc3ncccn3)cc2)cc1,-0.145
6,O=c1cc(N2CCN(Cc3ccccc3)CC2)c(-c2ccccc2)n[nH]1,-0.917
7,CCC1CCc2c(sc3nc(SCC(=O)NCc4ccco4)n(-c4ccccc4)c(=O)c23)C1 (configuration not stated),1.09
8,COCCn1ccc(O)c(Cc2ccc(Cl)cc2)c1=O,-0.0874
9,Cn1nc(N)c2c(-c3ccc(Cl)cc3)c(C#N)c(N)nc21,0.0615
10,CCOc1c(Cl)cc(C(=O)Nc2ccccc2-c2ccccc2)cc1Cl,-0.121
11,CCN1CCc2c(sc(NC(=S)NC(=O)c3ccccc3)c2C#N)C1,-0.118
12,Cn1c(=O)oc2cc(S(=O)(=O)N3CCCC(C(=O)N4CC=C(c5ccccc5)CC4)C3)ccc21 (configuration not stated),1.18
13,Cc1nn(Cc2ccc(C(=O)Nc3nc4c(C)cccc4s3)o2)c(C)c1Br,-0.909
14,COC(=O)c1ccc(C)c(NC(=O)c2c(-c3ccccc3)noc2C)c1,-0.204
15,COc1ccc(S(=O)(=O)N(CCc2ccccc2)CC(=O)N/N=C/c2ccc3c(c2)OCO3)cc1,-0.0021
16,Cc1ccc(NC(=O)c2cc(NC(=O)CCCC(=O)O)ccc2Cl)cc1Cl,-0.197
17,CCn1c(SCC(=O)C(C)(C)C)nnc1-c1ccccc1OC,-0.11
18,COc1ccc(N2CCN(C(CNC(=O)C3CCCCC3)c3cccnc3)CC2)cc1 (configuration not stated),-0.423
19,CC(C)CNC(=O)c1ccccc1NC(=O)CCSc1ccccc1,-0.204
20,Cc1ccc(C)c(OCC(=O)N2CCOCC2)c1,0.369
21,Cc1noc(C)c1S(=O)(=O)N1CCCCC1,-0.647
22,O=C(C1Cc2ccccc2CN1S(=O)(=O)c1ccc(F)cc1)N1CCCCC1 (configuration not stated),-0.0244

row,Structure (SMILES),z-score
1,O=c1c2cnn(-c3ccc(F)cc3)c2ncn1Cc1ccccn1,-0.33
2,Cc1ccc(C(=O)n2nc(-c3ccco3)nc2N)cc1,-0.149
3,CCn1c(=O)cc(SCC(=O)Nc2cc(OC)c(OC)c(OC)c2)c2ccccc21,-0.48
4,CCn1cc([N+](=O)[O-])c(C(=O)Nc2ccn(Cc3ccccc3)n2)n1,-0.269
5,Cc1ccc(C2=[N+]([O-])C3(CCCCC3=O)N(O)C2(C)C)cc1 (configuration not stated),0.0871
6,Cc1ccc(-c2nnn(CC(=O)N(Cc3ccco3)C(C(=O)NC3CCCC3)c3cccs3)n2)o1 (configuration not stated),-0.195
7,COCc1cc(=O)[nH]c(/N=C(\N)Nc2cccc(C)c2)n1,-0.000236
8,CCc1ccc(/C(C)=N\Nc2ccc([N+](=O)[O-])cc2)cc1,-0.239
9,O=C(NCN1C(=O)C2C3C=CC(C3)C2C1=O)OC1CCCCC1 (configuration not stated),-0.093
10,COC(=O)C1=C(CSCc2ccccc2)NC(=O)NC1c1cc(C)ccc1C (configuration not stated),-1.82
11,COc1ccc(C(C)NC(=O)c2ccc(Br)cc2)cc1OC (configuration not stated),-0.247
12,Cc1ccc(S(=O)(=O)NC(=O)NCCCCNC(=O)NS(=O)(=O)c2ccc(C)cc2)cc1,-0.183
13,CN(C(=O)c1cccc(C#N)c1)c1nnc(-c2ccccn2)s1,0.436
14,C/C(=N/OCC(=O)Nc1ccc(C)cc1C)c1cccs1,-0.599
15,O=c1[nH][nH]c(-c2ccccc2O)c1C(C[N+](=O)[O-])c1cccc(Cl)c1 (configuration not stated),0.016
16,CC(C)c1ccc2c(c1)C1Cc3ccccc3C1N2 (configuration not stated),-0.22
17,Cc1cc(=O)n2nc(-c3ccc(C(F)(F)F)cc3)sc2n1,-0.211
18,C=CCNC(=O)C1CC(=O)N(c2ccc(OCC(=O)Nc3ccc(OC)cc3)cc2)C1 (configuration not stated),-0.466
19,CCOc1ccc(NC(=O)N(CCN2CCOCC2)Cc2ccc3c(c2)CCCN3CC)cc1,-0.435
